# According to the supplement of paper PMC11417369:
# ± gives the standard deviation of the averaged measurements. This is one part of the list.
# Test system: PfAP2-EXP AP2 domain (GST-tagged)
# Test: gcPBM binding intensity (ln(normalized median fluorescence intensity)); higher = stronger DNA binding
# Method in brief: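 The binding buffer was 1× PBS containing 1% milk, 0.2 mg/ml BSA, 0.5% salmon testes DNA and 0.03% Triton X-100. In it, GST-tagged P. falciparum DNA-binding domains expressed in E. coli were applied for 1 h to an Agilent 4 × 180k array of primer-extended double-stranded 36-bp intergenic genomic probes plus negative controls. Binding intensity, read with Alexa488 anti-GST antibody and a 488 nm scan, is the highest Masliner-normalised natural-log median intensity across replicate spots of either probe orientation.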
row,Sequence,gcPBM binding intensity (ln)
1,TACATATATGATAAAAGTACATATAAATATACATAA [XGTACX_site3804],8.45 ± 0.33
2,GAAATAAAAGATGGTTGTACACCGTTTTCTCATATA [XGTACX_site5368],8.54 ± 0.27
3,TATATGAATAAACATTGTACGTAAATATTAACTATC [XGTACX_site543],8.7 ± 0.31
4,TATAATAATAATAATAATAATAATAATAATAATAAT [CACACA_negctrl_site905],8.285 ± 0.035
5,CGCATAAAGACAAGAACACACATATAGATTGTAGTA [CACACA_site3693],8.27 ± 0.49
6,AAAAAAAATTATATATGTACTTATTAATCCTTTTAT [XGTACX_site1387],8.12 ± 0.32
7,TTATATATTAAGAAATGTACGAAAAAAAAAATTATA [XGTACX_site3893],8.52 ± 0.42
8,AAGATGATAAAATATGTACACACAGTTTATACATTT [CACACA_site9341],8.21 ± 0.22
9,ATATTTATAATATAGAGTACTTACTAAGTTATGGGT [XGTACX_site5405],8.77 ± 0.28
10,AATGTGTAGGTAAGATAATTTTTGTTTTTTTATTTG [CACACA_negctrl_site424],8.42 ± 0.45
11,TTAAACTTGAAACACACACACACACCCATATAAAAA [CACACA_site758],8.61 ± 0.38
12,TGTAGTCTGGAGAAACGTACATAGTATCTGGTAGCT [XGTACX_site2538],8.59 ± 0.4
13,TTTTTATATATATGTATAAATATTTTTTCTATTTAT [XGTACX_negctrl_site606],8.4 ± 0.33
14,AAATTTTCTTAAGGTTGTACTTTTTGAAAATAATCT [XGTACX_site4894],8.26 ± 0.33
15,ATAAATATGTTCTGCACACAAATAAGTGTTTGAAGT [CACACA_site3892],8.65 ± 0.18
16,GAATTTCAACAAAGTAGTACATTTTATAGTAATTGG [XGTACX_site2319],8.29 ± 0.33
17,TAATGGAATAAAAATTGTACATATTTTTTTTTTTTT [XGTACX_site7669],8.38 ± 0.2
18,ACATACATACATACATACATACATACATACATACAT [XGTACX_negctrl_site315],9.23 ± 0.24
19,AACTCACGAGGACACACACACATATATATATATATA [CACACA_site4711],10.1 ± 0.33
20,TTTTTTTCTCTCTCTACACACAAGGTTTAATTTAAA [CACACA_site1690],8.64 ± 0.38
21,TATAATATATCTGTAACACACAAAAGTTATATACTT [CACACA_site5578],8.23 ± 0.4
22,TCATAGGGGTAGAAGGTGCAATAAAAAAGAAGAAAA,9.34 ± 0.071
23,TCATTCTAAATATAAACACACATAAATATATACATT [CACACA_site3354],8.54 ± 0.69

row,Sequence,gcPBM binding intensity (ln)
1,AATATATAATTTTTAACACACAAAAAAAAAAAAAAT [CACACA_site3581],8.56 ± 0.52
2,AAAAAAAAAAAAAAAACACACACATATAATATATTT [CACACA_site8369],8.59 ± 0.19
3,ATTGCGTGATAATAATGTACAAAAAGTAATTTATAT [XGTACX_site8339],8.48 ± 0.45
4,GGTACGTATTTCAATGCATGTCCATGTACATATAAA [TGCATGCA_site208],9.17 ± 0.38
5,CTATAATGTTTCTTTCAACACACAAAAAATGAACAC [CACACA_site8438],8.88 ± 0.38
6,CATACGTTCTAATATATACACACCTGGTATTAATTA [CACACA_site2221],8.62 ± 0.45
7,AAAAAAAAAAAAAAAAGTACAAAAATATATATGCAT [XGTACX_site8392],8.72 ± 0.5
8,TATGCACAGAAACACACACACACAACCAAAAAATAA [CACACA_site5425],8.72 ± 0.47
9,AATAAAAAAAAATGCACACATATATATATATATATA [CACACA_site2421],10.2 ± 0.33
10,TGTTATATATAAATTTGTACACATAAATATTTTTAC [XGTACX_site5873],8.71 ± 0.24
11,TTTTTATTTATATGTATACACACTTTAATTAAAAGT [CACACA_site2525],8.97 ± 0.73
12,CAGAATATATTCTATACATGCAATAGGAAATGTAGC [TGCATGCA_site110],9.39 ± 0.35
13,TTATAATCTATACATATATATGTATGTATGTCTCAA [CACACA_negctrl_site1702],8.29 ± 0.32
14,AAATGCGTATATAACGCATGTATAAGAACATTTTTT [TGCATGCA_site225],8.37 ± 0.54
15,GAAGTATTATTAAAGCTGCACTTTTCTAAAATAAAC [GTGCAC_site9429],8.43 ± 0.11
16,ACATCATTTTTATGTACACACACATATACGTTGAAT [CACACA_site5095],8.97 ± 0.29
17,TAAAATTTACAACACTGTACTTGAATTTATCTTTAA [XGTACX_site241],8.25 ± 0.37
18,CATTAATTTAATAAATGTACATAAAATATATATTAT [XGTACX_site8085],8.9 ± 0.51
19,GCAGTATGCGATCAGTGTACGAGTTATTTTATAAAA [XGTACX_site4764],8.4 ± 0.38
20,CTAATATATGTATGCACACACAATATATACATATTT [CACACA_site3360],8.68 ± 0.11
21,GTTATACACATATATACACACATATGTAAATATATA [CACACA_site9080],8.52 ± 0.33
22,GTCCTTACTAATTAATTTTAGGCCATATAGTTTGTC [XGTACX_negctrl_site199],8.9 ± 0.45
23,ATATTACAAATATAATGTACAAAATATAAATATGCA [XGTACX_site8106],8.72 ± 0.45

row,Sequence,gcPBM binding intensity (ln)
1,TGCCATATATATATTAAATACATAATAATGAGCCTA [GTGCAC_negctrl_site10],8.18 ± 0.26
2,AAAATATATAATTTTTAACACACAAAAAAAAAAAAA [CACACA_site9192],8.4 ± 0.47
3,ATAAACAAAAAAAAAAAATATATCAATATATATATA [CACACA_negctrl_site299],9.53 ± 0.25
4,AGTCATAAATTTATTTGTACATATAATATATATATA [XGTACX_site8489],9.48 ± 0.25
5,ATGTTATATTTTTTTATACACACTGGGATATATAAA [CACACA_site6244],8.6 ± 0.37
6,TTCATTGTGTTAACGGTGCATATATTTTTTCACCGT [GTGCAC_site9464],9.05 ± 0.27
7,ATATTAAAAAAATATGCATGCAAATATTATTTTGTA [TGCATGCA_site191],9.79 ± 0.42
8,TAAAAATATAAAAAGTGTACAATATATAAATTAATA [XGTACX_site1606],8.62 ± 0.39
9,TTTTTCTTTTTTTTTTTAATAATATATAACAAATTT [CACACA_negctrl_site1724],8.29 ± 0.43
10,TATTTAATTAATATAATATTAAACGGAAAAGATAAA [TGCATGCA_negctrl_site148],8.72 ± 0.45
11,AATCAAATTTTCAAGTCGCACCAAACAAAAAAATGA [CACACA_negctrl_site1397],8.67 ± 0.35
12,TATTTTTATTTTCCTTCACACATTTTTTATATTTTT [CACACA_site5830],8.94 ± 0.53
13,TTTTAATTTATCGACACACGCATGAATAGAAATTAG [CACACA_site3361],8.55 ± 0.31
14,AAAAAAAAAAAAAAAACACACATATAGATTATTGTA [CACACA_site7797],8.33 ± 0.38
15,AACACAATAAAAATTAAAAATGTTAAGTAAATATAA [GTGCAC_negctrl_site60],8.43 ± 0.26
16,TTATAATTTAATAAATGTACATAAATAATATACATA [XGTACX_site7271],8.26 ± 0.18
17,AGACAATATCTTATTTGTACATATGTATTCCTCATA [XGTACX_site5757],8.56 ± 0.99
18,ACTTTTTTTTTTTTTTTAGATTACATAAATATAAAT [CACACA_negctrl_site139],8.36 ± 0.33
19,TTATAAATTTAAAAAGTGCATAATAATAACAAAAAG,8.89 ± 0.23
20,TATGTATATTTAAATGCATGTGATTATTTTTGACTT [TGCATGCA_site568],8.47 ± 0.42
21,ATTATGGATACATAAACACACATATATATAAAAAAA [CACACA_site4303],8.74 ± 0.45
22,ACATGATAAATAGTCACACATAAATATAATATATAT [CACACA_site5207],8.61 ± 0.39
23,AATTATTCATAAAATGCATGTACATGGTTTAATATT [TGCATGCA_site87],8.84 ± 0.25

row,Sequence,gcPBM binding intensity (ln)
1,ATACATGTTTTATGTGCACACAAAGTTGTTATGAGG [CACACA_site4032],9.1 ± 0.3
2,TCGTAAACTTTATGCACACACATATACATATTTCAT [CACACA_site739],8.71 ± 0.28
3,ATAATACACAAGCACACACACACACGGATATTTATA [CACACA_site6714],8.79 ± 0.38
4,ATAATTATATTTTATTCACACATCGTTATATAGTAA [CACACA_site4743],8.54 ± 0.42
5,TATAAAATATATATCTGTACGTATTTTATTTTTTAT [XGTACX_site6257],8.42 ± 0.37
6,TATAAGCAAAGACACACACACATATAAATATAAATA [CACACA_site7740],8.43 ± 0.38
7,AATACAATATAAAGGTGTACATATATATATATATAT [XGTACX_site68],10.1 ± 0.48
8,AAAAAAAAAAAAAAAACACACACAACACCCATACCT [CACACA_site9208],8.92 ± 0.2
9,ATGTAGATAGATAGGGTGCTAAAAATAAGATTTATA [GTGCAC_site9602],8.66 ± 0.18
10,TATATATATATATGAGTGCATATGTGTAATATAAAA,10.1 ± 0.42
11,TACAAAATATTTTACACACACATATAAATACCTATA [CACACA_site7272],8.54 ± 0.33
12,TTATGTTCTTAATGCACACTTATAAGTATCTTATAA [CACACA_site1394],9.04 ± 0.2
13,TATATAATTATTTGATGTACACTACAATGTATTTGT [XGTACX_site7991],8.76 ± 0.19
14,AGAAAAATTCTAAGAACATGCAAAAAAATAAAAAAA [TGCATGCA_site293],8.88 ± 0.5
15,TTAACATTTTAAAAATGTACATTTATATACATAAAT [XGTACX_site922],8.44 ± 0.4
16,AAAAAATAAATAAATATACACACCATATATATATTT [CACACA_site2854],8.29 ± 0.35
17,TCTAATGTAATGCATACACACAACTATCCATCAAAA [CACACA_site534],8.44 ± 0.4
18,AAAAAAAAAAAAAAAAGTACAAAAAAAAAAAAAAAA [XGTACX_site4549],8.26 ± 0.057
19,TTTTTTTTTTTAAATAGTACACATATATATATATAT [XGTACX_site6983],10.1 ± 0.37
20,TATACCTATAGACACACACACATAAATAGATATATA [CACACA_site6748],8.83 ± 0.51
